This test relates to NCI-H322M lung. The experiment in a line: NCI-60 cell line screen, 48 h.

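Values below derive from 48-hour exposures of cells grown in 96-well plates, with endpoints linearly interpolated between the two concentrations bracketing the appropriate inhibition level. Here, GI50 denotes the concentration required for 50% inhibition of growth. TGI denotes the concentration required for complete inhibition of growth.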

Turning to `COc1ccc2[nH]cc(-c3csc4nc(-c5ccccc5)cn34)c2c1`, the GI50 was 0.652 µM and the TGI was > 100 µM.
In the case of `Nc1nc(-c2cccc([N+](=O)[O-])c2)c(N=Nc2cccc([N+](=O)[O-])c2)s1`, the GI50 is > 100 µM and the TGI is > 100 µM.

For the origin of these results see PubChem BioAssay (NCI).
